# In the supplement of paper PMC8728848:
# The list shows a part of the results.
# B1: DGL (Dioclea grandiflora), P08902 (protein)
# chain: ADTIVAVELDSYPNTDIGDPNYPHIGIDIKSIRSKSTARWNMQTGKVGTVHISYNSVAKRLSAVVSYSGSSSTTVSYDVDLNNVLPEWVRVGLSATTGLYKETNTILSWSFTSKLKTNSIADENSLHFSFHKFSQNPKDLILQGDAFTDSDGNLELTKVSSSGDPQGNSVGRALFYAPVHIWESSAVVASFDATFTFLIKSPDREPADGITFFIANTDTSIPSGSGGRLLGLFPDAN
# Legend:
# Experiment in all cases: glycan array binding signal (z-score within array); higher = stronger binding
# Conditions in all cases: glycan notation: IUPAC condensed, linker removed
# [1] = biological target: Gal(b1-4)GlcNAc(b1-3)[GlcNAc(b1-6)]Gal(b1-4)GlcNAc
# In short: (§1)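 Glycan array binding is given as a within-array Z-score, which can be read as non-binding when negative. The arrays, 3228 of them, came from the Consortium for Functional Glycomics database and were retained only where the protein sequence was available. Z-scores were averaged across arrays of the same protein sequence at different concentrations or buffers and across linkers.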
# [2] = biological target: Gal(b1-4)GlcNAc(b1-6)Gal(b1-4)GlcNAc
# In short: as §1
# [3] = biological target: Gal(b1-4)GlcNAc(b1-6)Gal(b1-4)GlcNAc(b1-6)GalNAc
# In short: as §1
# [4] = biological target: Gal(b1-4)GlcNAc(b1-6)GalNAc
# In short: as §1
# [5] = biological target: Gal(b1-4)GlcNAc(b1-6)[Gal(b1-3)]GalNAc
# In short: as §1
# Gal3S(b1-3)GalNAc = biological target: Gal3S(b1-3)GalNAc
# In short: as §1
# Gal3S(b1-3)GlcNAc = biological target: Gal3S(b1-3)GlcNAc
# In short: as §1
# [6] = biological target: Gal3S(b1-3)[Fuc(a1-4)]GlcNAc
# In short: as §1
# Gal3S(b1-4)Glc = biological target: Gal3S(b1-4)Glc
# In short: as §1
# Gal3S(b1-4)Glc6S = biological target: Gal3S(b1-4)Glc6S
# In short: as §1
# Gal3S(b1-4)GlcNAc = biological target: Gal3S(b1-4)GlcNAc
# In short: as §1
# Gal3S(b1-4)GlcNAc6S = biological target: Gal3S(b1-4)GlcNAc6S
# In short: as §1
# [7] = biological target: Gal3S(b1-4)[Fuc(a1-3)]Glc
# In short: as §1
# Gal3S4S(b1-4)GlcNAc = biological target: Gal3S4S(b1-4)GlcNAc
# In short: as §1
# Gal3S6S(b1-4)GlcNAc = biological target: Gal3S6S(b1-4)GlcNAc
# In short: as §1
# Gal3S6S(b1-4)GlcNAc6S = biological target: Gal3S6S(b1-4)GlcNAc6S
# In short: as §1
# Gal4S(b1-4)GlcNAc = biological target: Gal4S(b1-4)GlcNAc
# In short: as §1
# Gal4S6S(b1-4)GlcNAc = biological target: Gal4S6S(b1-4)GlcNAc
# In short: as §1
# Gal6S(b1-4)Glc = biological target: Gal6S(b1-4)Glc
# In short: as §1
# Gal6S(b1-4)Glc6S = biological target: Gal6S(b1-4)Glc6S
# In short: as §1
# Gal6S(b1-4)GlcNAc = biological target: Gal6S(b1-4)GlcNAc
# In short: as §1
# Gal6S(b1-4)GlcNAc6S = biological target: Gal6S(b1-4)GlcNAc6S
# In short: as §1
# GalNAc(a1-3)Gal = biological target: GalNAc(a1-3)Gal
# In short: as §1
# GalNAc(a1-3)GalNAc = biological target: GalNAc(a1-3)GalNAc
# In short: as §1
# GalNAc(b1-3)Gal = biological target: GalNAc(b1-3)Gal
# In short: as §1
# [8] = biological target: GalNAc(b1-3)Gal(a1-4)Gal(b1-4)GlcNAc
# In short: as §1
# [9] = biological target: GalNAc(b1-3)Gal(a1-4)Gal(b1-4)GlcNAc(b1-3)Gal(b1-4)Glc
# In short: as §1
# GalNAc(b1-3)GalNAc = biological target: GalNAc(b1-3)GalNAc
# In short: as §1
# GalNAc(b1-4)GlcNAc = biological target: GalNAc(b1-4)GlcNAc
# In short: as §1
# [10] = biological target: GalNAc(b1-4)GlcNAc(b1-2)Man(a1-3)[GalNAc(b1-4)GlcNAc(b1-2)Man(a1-6)]Man(b1-4)GlcNAc(b1-4)GlcNAc
# In short: as §1
# Glc(a1-4)Glc = biological target: Glc(a1-4)Glc
# In short: as §1
# Glc(a1-6)Glc(a1-6)Glc = biological target: Glc(a1-6)Glc(a1-6)Glc
# In short: as §1
# Glc(b1-4)Glc = biological target: Glc(b1-4)Glc
# In short: as §1
# Glc(b1-6)Glc = biological target: Glc(b1-6)Glc
# In short: as §1
# GlcA(b1-3)Gal = biological target: GlcA(b1-3)Gal
# In short: as §1
# GlcA(b1-3)GlcNAc = biological target: GlcA(b1-3)GlcNAc
# In short: as §1
# GlcA(b1-6)Gal = biological target: GlcA(b1-6)Gal
# In short: as §1
# [11] = biological target: GlcNAc(a1-3)Gal(b1-4)GlcNAc
# In short: as §1
# [12] = biological target: GlcNAc(a1-4)Gal(b1-3)GlcNAc
# In short: as §1
# [13] = biological target: GlcNAc(a1-4)Gal(b1-4)GalNAc
# In short: as §1
# [14] = biological target: GlcNAc(a1-4)Gal(b1-4)GlcNAc
# In short: as §1
# [15] = biological target: GlcNAc(a1-4)Gal(b1-4)GlcNAc(b1-3)Gal(b1-4)Glc
# In short: as §1
# [16] = biological target: GlcNAc(a1-4)Gal(b1-4)GlcNAc(b1-3)Gal(b1-4)GlcNAc
# In short: as §1
binder,measurement,setting,value
B1,glycan array binding signal (z-score),[1],-0.173
same,glycan array binding signal (z-score),[2],-0.173
same,glycan array binding signal (z-score),[3],-0.159
same,glycan array binding signal (z-score),[4],-0.162
same,glycan array binding signal (z-score),[5],-0.176
same,glycan array binding signal (z-score),Gal3S(b1-3)GalNAc,-0.18
same,glycan array binding signal (z-score),Gal3S(b1-3)GlcNAc,-0.176
same,glycan array binding signal (z-score),[6],-0.182
same,glycan array binding signal (z-score),Gal3S(b1-4)Glc,-0.171
same,glycan array binding signal (z-score),Gal3S(b1-4)Glc6S,-0.18
same,glycan array binding signal (z-score),Gal3S(b1-4)GlcNAc,-0.169
same,glycan array binding signal (z-score),Gal3S(b1-4)GlcNAc6S,-0.17
same,glycan array binding signal (z-score),[7],-0.169
same,glycan array binding signal (z-score),Gal3S4S(b1-4)GlcNAc,-0.179
same,glycan array binding signal (z-score),Gal3S6S(b1-4)GlcNAc,-0.167
same,glycan array binding signal (z-score),Gal3S6S(b1-4)GlcNAc6S,-0.159
same,glycan array binding signal (z-score),Gal4S(b1-4)GlcNAc,-0.17
same,glycan array binding signal (z-score),Gal4S6S(b1-4)GlcNAc,-0.183
same,glycan array binding signal (z-score),Gal6S(b1-4)Glc,-0.174
same,glycan array binding signal (z-score),Gal6S(b1-4)Glc6S,-0.152
same,glycan array binding signal (z-score),Gal6S(b1-4)GlcNAc,-0.178
same,glycan array binding signal (z-score),Gal6S(b1-4)GlcNAc6S,-0.169
same,glycan array binding signal (z-score),GalNAc(a1-3)Gal,-0.176
same,glycan array binding signal (z-score),GalNAc(a1-3)GalNAc,-0.173
same,glycan array binding signal (z-score),GalNAc(b1-3)Gal,-0.173
same,glycan array binding signal (z-score),[8],-0.171
same,glycan array binding signal (z-score),[9],-0.179
same,glycan array binding signal (z-score),GalNAc(b1-3)GalNAc,-0.179
same,glycan array binding signal (z-score),GalNAc(b1-4)GlcNAc,-0.169
same,glycan array binding signal (z-score),[10],-0.179
same,glycan array binding signal (z-score),Glc(a1-4)Glc,-0.163
same,glycan array binding signal (z-score),Glc(a1-6)Glc(a1-6)Glc,-0.179
same,glycan array binding signal (z-score),Glc(b1-4)Glc,-0.17
same,glycan array binding signal (z-score),Glc(b1-6)Glc,-0.169
same,glycan array binding signal (z-score),GlcA(b1-3)Gal,-0.181
same,glycan array binding signal (z-score),GlcA(b1-3)GlcNAc,-0.173
same,glycan array binding signal (z-score),GlcA(b1-6)Gal,-0.182
same,glycan array binding signal (z-score),[11],-0.175
same,glycan array binding signal (z-score),[12],-0.153
same,glycan array binding signal (z-score),[13],-0.148
same,glycan array binding signal (z-score),[14],-0.176
same,glycan array binding signal (z-score),[15],-0.176
same,glycan array binding signal (z-score),[16],-0.156
